The supplement of paper PMC10126150
Sequences with one replicate were seen in a single cluster, so their values are uncertain.

Tested on: ATP
Experiment: switch fluorescence ratio, 500 uM ATP over buffer (Cy3 cluster intensity, sum of 5 cycles each) (fold (ratio)); higher = stronger signal-on switching upon ATP binding; sequences stand for … in TCGTCGGCAGCGTCAGATGTGTATAAGAGACAGTTTTTTTTTTTTTTTTTTTTTTTTT…TC
Conditions: aptamer strand: ATP DNA aptamer (quencher-CACCTGGGGGAGTATTGCGGAGGAAGG + anchor), 100 nM annealed; ATP concentration: 500 uM; one replicate
Outline: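 The fluorescence ratio divides summed target-cycle Cy3 intensity by summed buffer-cycle Cy3 intensity for each cluster and is averaged per switch-domain sequence. Cy3-labelled switching-strand clusters on a modified Illumina MiSeq flow-cell were annealed to 100 nM quencher-labelled ATP aptamer, then imaged in selection buffer and again after 15 min with 500 uM ATP at 22 °C. Five such cycles were run, with NaOH stripping and re-annealing between them, and clusters outside 100-1000 RFU were excluded.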
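Also: ATP exposure 15 min at 22 °C before imaging.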

Sequence	switch fluorescence ratio
GCAAGGGTGC	1.09
TTAAGTCGAT	0.985
GCAAAGCTTT	1.01
CAAGTGAGTA	0.998
GATTCTGTGG	1
CCGAAATCGG	1.18
CCAGTTCTTT	1.02
CGGGGTTAA	0.974
GCGGTGTACA	1.08
CGGAACAGTA	1.05
ATGATTCCCG	1.04
AGTGTTAAGT	0.989
GCGCCGATTG	1.01
TAGTGCCTCC	2.81
GTTTGAAGGC	1.07
TAGACTTTAC	1.24
CAATATCCTA	0.982
AGGACCTATA	0.972
CCTAAAAATG	1.01
CATTCTGCA	1.11
TGTTGCTCGG	0.924
ATTTTACAGA	1.04
ATTATCTGCT	1.01
GATACATGCG	1.02
GGACGCTAAG	1.01

Sequence	switch fluorescence ratio
AAGCAGTACT	2.91
GTGAGATTCA	1.03
TTCATAATTT	1.02
CAAGCGCCGT	0.985
TATCTGTGGG	0.985
CGAAAGGAAG	1.01
ATGAGGAGCT	0.985
CGAGGGACCT	1.08
GTGTCATTGG	0.985
CATGCTCGTC	1.05
TCGCCAGGGG	1.05
CTTAGTGAGG	0.996
ATAATGGGT	1.03
GACAAAGTCG	1.01
CCACAGGACT	1.17
CGCAGGATCC	1.16
AGAAAATGGA	1.02
CCTTGATGAT	0.981
TCCGGTGCTG	1.13
CGCGTCGTCA	0.973
CTTCGACTCG	1.01
GCGAGCCGCA	1.01
CGAGTCGGTC	0.997
GGCTGGTTGT	1
GGTTCAATTC	1

Sequence	switch fluorescence ratio
CAGTGTAGGC	0.997
TCCGTAATCT	4.45
AGGCTATATC	1.11
AATCGCAGTT	0.988
AGTATTTATG	0.949
TATCCGTTAT	1.1
ATGCCATTAT	1
GATTTCAATA	0.987
CGTAAGAGCG	0.99
GATTTATCCA	1.02
GGCCTAGCGG	1
AACAATGGTG	1.03
AGCATGTATG	0.963
CAAGGGACCA	1.05
CCGATGGCGT	1.28
TTGGTCCTAA	1.03
CGCGGGCGTG	1
GTGGTGTCCG	1.01
GTAAATAGCG	1.04
TTTTGCTTTA	1.02
TCTGGATCGT	1
GTGCACCAGC	1.03
GAGACGGGAC	1.09
GATGTCAAAG	1.03
AAATTTAGCC	1.04

Sequence	switch fluorescence ratio
ATCAAGGTCA	1.01
TCCACGATGT	1.03
AAAAGACTCA	1.08
ATGATAGGTA	0.988
CCCCTCTTTA	1.03
CGTCGCTCTA	1.01
CTTGAGTAAT	1.03
AGCATTAGGG	0.987
ACGTTTGGGA	1.04
AATCTCTTTA	1.03
TTAGCCGCTT	1.01
TGAGATGG	0.952
AGATTTTAGC	0.969
CTTGGCCTG	0.941
AATCCGAGTG	1.01
TTCAACCTAG	1.06
GCGACTTTGT	0.974
TCAATGGTCT	1
TTAGACCTAT	0.966
ATCTGGCGCG	1.01
GGACCCGACC	1.14
AAAGACGAAA	1.04
TAGCAGGTTG	1.02
AATCGATCA	1.04
ACATCTCCCA	1.05

Sequence	switch fluorescence ratio
ATGTCTAGTG	1.17
GGGTCTTACC	0.98
GAAGTCGGAG	0.966
GTACTAAAGG	1.05
AAAATAGGAA	0.959
ATAAAGGCTA	0.973
TGTTCTAGCG	1.02
CCGAGACTAC	3.61
ATAGGGCAAG	0.982
TTGCGGGATA	4.1
TTACGATGAT	1.02
ATCAAAGGAG	1
CGGCAACCGA	0.979
TGACCTTACT	2.01
GTTCAATGAC	1.01
ATTCGAGTCA	0.99
CGGGGTATA	0.993
CGCCGGCCTT	1.06
ATAATGGAGG	0.967
GAGTTGTATA	0.998
ACCAGGTCCA	1.08
CACTTGGTTA	1.05
GGGTACCTCA	1.03
CTGTTAAAGA	1.03
CCATTGTTGG	1.03

Sequence	switch fluorescence ratio
GATCCAAAGT	0.962
CACGTACATC	1.6
TGCCTTTTAT	1.01
CCAGTGTATT	1.08
TTGCAAACGA	1.14
CAACGTGAG	0.978
TCAGATGTGG	1.02
GTTGCTATAT	1.03
TTTTCCGGTA	1.01
TTCGCACTTC	3.41
ATACTCTCTC	1.09
GGTAACGCAG	1.03
ACATTTGGG	1
CGTCTTCGTA	0.957
GACAGAAGCG	0.992
GTTCCAGATG	1
GCTCTCCATT	1.01
GGCGGGAATG	1.01
TCAATCGATC	0.996
CGACCGGGTG	3.12
GTAAGAAGAC	0.937
GGACACGGTT	0.995
GAAAGCTTTT	1.01
ACTGTGCGGC	1.07
ATGTTCGCCG	0.952

Sequence	switch fluorescence ratio
TGCCCACC	1.18
GAAGATGATG	0.94
TTATTTTACC	1.06
TCGAAACGT	1.1
AGATGCCGAT	1
GGTCGACCAT	0.969
TAGTCTTCG	1.09
GCGACTGCAA	1.25
TAGTCGGGAG	0.988
TTCAGAGCCC	1.04
GTATCTAGCT	0.944
CCGGTAAAAA	1.08
CTACCGAGCG	1.27
AGAGATGGCC	1.01
CGGTACTGCG	1.05
AACGCCCATG	0.993
ATACATTAGG	1.02
GGCTCCCCGG	2.3
ACCTTTGTGA	1.01
TGGAAGCGTG	0.965
ACCTGGCAGC	1.06
TGCTTGAGGA	1
ACCCCAGTC	1.27
TTGGCCAGGA	1.01
AAAATGTTTG	1.02

Sequence	switch fluorescence ratio
AATCATTAGA	0.955
ATCGGGCGGC	1
GTGTTTCACG	0.988
CTGGGCACTG	0.992
TAGTAATCTC	1.14
GATGATCGGA	0.998
TAACATGAAC	1.09
GCTTGAGGCC	1.03
CAGGGGACT	1.02
ACTTCAAGAC	1.74
CGTACAGACT	1.04
CATGGAAAGG	1.13
GATGCTGGT	1
CAAAGATATC	1.02
ACGTTTGCGC	0.995
GGGATGTAC	0.995
ACGGCTGGGA	0.99
CGGTTCGCGC	1
AGGGTCAGAC	1.01
AGTCGAGGC	1.04
CCTGGTTGCT	0.977
CACAGTATAA	1.06
CCAGGTCGAT	1.34
CGGTCCGGCC	1.02
TACGTTCATG	0.984
